Data on 87 molecules can be found in paper PMC4336329 (PLoS ONE, 2015).

The whole screen tested about 310,000 compounds, of which about 14,000 (4.5%) showed an effect of 50% or more. Effects have a minus sign here. Some of the results follow.
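Further: peak tail current of the secondary pulse compared with the same well before compound.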

In the assay the target is human ether-à-go-go-related gene (hERG) potassium channel (human, UniProt Q12809). As to the kind of experiment: primary screen, population patch clamp on CHO cells stably expressing hERG.
human ether-à-go-go-related gene (hERG) potassium channel, sequence (Q12809 whole entry, looked up): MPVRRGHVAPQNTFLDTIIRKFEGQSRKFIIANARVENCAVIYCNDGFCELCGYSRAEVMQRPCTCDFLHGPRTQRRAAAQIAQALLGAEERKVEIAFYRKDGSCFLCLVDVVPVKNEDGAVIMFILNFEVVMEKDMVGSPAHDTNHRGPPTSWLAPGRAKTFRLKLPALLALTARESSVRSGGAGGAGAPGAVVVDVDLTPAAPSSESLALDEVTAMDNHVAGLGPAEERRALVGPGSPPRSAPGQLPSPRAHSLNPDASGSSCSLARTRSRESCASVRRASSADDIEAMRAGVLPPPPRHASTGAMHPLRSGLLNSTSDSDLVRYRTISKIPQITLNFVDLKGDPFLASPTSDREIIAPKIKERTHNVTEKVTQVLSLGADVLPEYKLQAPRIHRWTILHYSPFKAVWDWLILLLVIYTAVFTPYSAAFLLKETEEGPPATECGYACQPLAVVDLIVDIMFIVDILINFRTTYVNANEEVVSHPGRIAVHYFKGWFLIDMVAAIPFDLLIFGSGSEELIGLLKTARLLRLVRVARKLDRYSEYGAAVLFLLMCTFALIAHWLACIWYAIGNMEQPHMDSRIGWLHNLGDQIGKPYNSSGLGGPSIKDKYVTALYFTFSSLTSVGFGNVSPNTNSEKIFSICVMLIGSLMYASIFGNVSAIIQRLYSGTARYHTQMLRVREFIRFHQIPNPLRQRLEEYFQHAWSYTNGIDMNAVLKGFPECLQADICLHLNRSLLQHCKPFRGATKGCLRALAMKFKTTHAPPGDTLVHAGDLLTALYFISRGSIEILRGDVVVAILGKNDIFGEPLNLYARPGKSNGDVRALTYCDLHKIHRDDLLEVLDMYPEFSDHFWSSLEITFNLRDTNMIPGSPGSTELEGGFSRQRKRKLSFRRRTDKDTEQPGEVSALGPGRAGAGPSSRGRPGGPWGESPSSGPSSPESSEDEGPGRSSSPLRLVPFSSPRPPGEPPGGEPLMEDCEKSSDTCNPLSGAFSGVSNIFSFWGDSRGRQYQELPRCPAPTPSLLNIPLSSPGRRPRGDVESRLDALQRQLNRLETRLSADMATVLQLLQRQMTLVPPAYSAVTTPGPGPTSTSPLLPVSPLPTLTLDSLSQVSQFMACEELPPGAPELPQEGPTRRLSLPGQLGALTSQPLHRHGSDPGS
Regarding `CN(C)S(=O)(=O)c1ccc(C(=O)N2CCN(S(=O)(=O)c3cccs3)CC2)cc1`, the “hERG current change (%, negative = inhibition) at 10uM” value worked out at 12.6%.
To `Cc1ccc(-c2csc3ncnc(-n4nnc5ccccc54)c23)cc1C` belongs -8.24%.
To `Cc1ccc(Cl)cc1N1CCN(Cc2nnnn2Cc2ccco2)CC1` belongs -37.9%; to `CC(C)CCN1NC2(CCC(C)CC2)NC1=S` (stereo not drawn), 0.837%; to `CC(=O)OCC(=O)Nc1c(C)cc(C)cc1C`, -0.754%.
As to `CC(=O)N1CCC(O)(c2ccc3c(c2)OCO3)CC1`, the “hERG current change (%, negative = inhibition) at 10uM” value stood at 16.7%.
`O=C(CC1(O)C(=O)N(Cc2ccccc2Cl)c2ccccc21)c1ccco1` (stereo not drawn): the “hERG current change (%, negative = inhibition) at 10uM” value is on record as -40.4%.
To `O=C1CCCC(=O)C1C1c2ccccc2CCN1C(=O)CCl` (stereo not drawn) belongs 15.1%.
To `CCCCc1ccc(-c2nc(N)n[nH]2)cc1` belongs 6.27%; to `O=C(CO/N=C/c1cccc([N+](=O)[O-])c1)NC1CCCCCC1`, -20.7%; to `CN(C(=O)C1CCCCC1)C1CCS(=O)(=O)C1` (stereo not drawn), -15.3%.
As for `Cc1nnc(SCc2cc([N+](=O)[O-])cc3c2OCOC3)[nH]c1=O`, the “hERG current change (%, negative = inhibition) at 10uM” value is recorded as 3.87%.
As for `COc1ccc(CC(=O)NC(C)C2COc3ccccc3O2)cc1OC` (stereo not drawn), the “hERG current change (%, negative = inhibition) at 10uM” value is given as -0.81%.
To `CCC(C)NC(=O)c1cn(CC)c2cc(N3CCN(C(=O)c4ccco4)CC3)c(F)cc2c1=O` (stereo not drawn) belongs -55.2%; to `CCN(CCO)C(=O)c1ccc2nc(Cc3ccc(OC)cc3)oc2c1`, 8.84%.
To `CC(=O)Oc1ccc(CCC(C)OC(C)=O)cc1` (stereo not drawn) belongs 3.79%; to `CCc1nnc(NC(=O)C2CCCN(c3nc(C)cc(C)n3)C2)s1` (stereo not drawn), -23.3%.
To `CC(=O)N1c2ccccc2C(=O)C1N(C)c1ccc(C)cc1` (stereo not drawn) belongs 1.21%; to `CCCCn1c(N)c(N(CCOC)C(=O)COC(=O)COc2cc(C)ccc2Cl)c(=O)[nH]c1=O`, 24.3%; to `Cc1ccc(S(=O)(=O)N2CCC(C(=O)N3CCC[C@H]3C(=O)NCC(C)C)CC2)cc1`, 13.8%.
On to `COc1c(S(=O)(=O)N2CCN(C)CC2)ccc(Cl)c1Cl`, for which the “hERG current change (%, negative = inhibition) at 10uM” value is 13.7%.
For the molecule `COc1ccc(C2CC(c3ccc(F)cc3)Nc3nc(N)nn32)cc1OC` (stereo not drawn), the “hERG current change (%, negative = inhibition) at 10uM” value was -8.42%.
To `COc1ccc(-n2c(=O)c3ccccc3n(CC(=O)NC3CCCCC3)c2=O)cc1OC` belongs 7.46%; to `COc1cc(/C=C2/SC(=O)NC2=O)ccc1Oc1ccc([N+](=O)[O-])cc1[N+](=O)[O-]`, 9.34%.
To `O=C(Cc1ccccc1F)Nc1nc(-c2ccc(F)cc2)cs1` belongs -3.01%; to `CCOC(=O)CN1C(c2ccccc2O)Nc2ccc(Br)cc2C1c1ccccc1` (stereo not drawn), -7.83%.
Then `COc1cc(/C=N/NC(=O)C(=O)NCc2ccco2)cc(Br)c1O`, with 2.7%; and `Cc1cc(C)n(C(=O)c2ccc(S(=O)(=O)NCC3CCCO3)cc2)n1` (stereo not drawn), with -14.8%.
Turning to `O=C(NCc1nnc(SCC(=O)N2CCCC2)o1)c1ccc(F)cc1`, the “hERG current change (%, negative = inhibition) at 10uM” value amounted to 14.3%.
With `CN(C)S(=O)(=O)Oc1ccc(Cl)cc1C(=O)Nc1cccc(C(F)(F)F)c1`, the “hERG current change (%, negative = inhibition) at 10uM” value is on record as -9.06%.
Take `CCC(c1nnnn1Cc1ccc(F)cc1)N1CCN(C2CCCCC2)CC1.Cl` (stereo not drawn): the “hERG current change (%, negative = inhibition) at 10uM” value is -53%.
To `O=C(O)c1ccccc1-c1ccccc1C(=O)Nc1ccc(-c2nc3cc(Cl)ccc3o2)cc1` belongs 35.9%.
To `Cc1ccc(CNC(=O)CSc2nc3ccsc3c(=O)n2NC(=O)c2ccccc2)cc1` belongs -9.41%.
Then `CCc1cn([C@H]2C[C@H](O)[C@@H](CO)O2)c(=O)[nH]c1=O`, with 7.05%; and `CCc1cccc(NC(=O)Nc2cccs2)c1`, with 12.9%; and `C=CCNc1nc(-c2ccc(OC)cc2OC)cs1.Cl`, with -14.4%.
For `Cc1c(Cl)cnc(NC(=O)COC(=O)c2ccc3ncsc3c2)c1Cl`, the “hERG current change (%, negative = inhibition) at 10uM” value is -2.49%.
Regarding `COCCN1C(=O)c2ccc(C(=O)O)cc2C1=O`, the “hERG current change (%, negative = inhibition) at 10uM” value stood at 14.6%.
To `CCOc1cccc(C(=O)N/N=C/c2coc3ccccc3c2=O)c1` belongs 10.6%.
Turning to `Cc1ccccc1NC(=O)CC1C(=O)NCCN1C(=O)c1cccc(Cl)c1` (stereo not drawn), the “hERG current change (%, negative = inhibition) at 10uM” value worked out at 15.7%.
Then `CCc1c(C)nc(N)nc1N1N=C1SCCOc1ccccc1`, with -4.86%.
Turning to `COc1ccc(S(=O)(=O)N(Cc2ccc(OC)c(OC)c2)Cc2ccco2)cc1`, the “hERG current change (%, negative = inhibition) at 10uM” value was -25.3%.
As to `O=C1C2Sc3[nH]c(=O)sc3C(c3cc([N+](=O)[O-])ccc3O)C2C(=O)N1c1ccccc1` (stereo not drawn), the “hERG current change (%, negative = inhibition) at 10uM” value came to 8.68%.
To `Cc1ccc(S(=O)(=O)NCC(=O)N2CCN(S(=O)(=O)c3ccc(Cl)cc3)CC2)cc1C` belongs 6.6%; to `Cc1ccc(-n2nc(C)c(C(=O)Nc3cccc(C(=O)NC4CC4)c3)n2)c(C)c1`, 7.57%; to `Cc1c(/C(O)=C2\C(=O)C(=O)N(CCN(C)C)C2c2ccccc2)cnn1-c1ccccc1` (stereo not drawn), 17.2%.
For the molecule `Cc1sc2ncnc(SCC(=O)c3ccc4c(c3)OCCO4)c2c1-c1ccccc1`, the “hERG current change (%, negative = inhibition) at 10uM” value is -8.25%.
Then `O=C(COC(=O)c1cc(S(=O)(=O)N2CCOCC2)ccc1O)NCC1CCCO1` (stereo not drawn), with -0.0925%.
To `C=CCc1c(C)nc(C)nc1N/N=C/c1ccc(N(C)C)cc1` belongs -32.6%; to `O=C(CSC(=S)N1CCCC1)N1CCN(S(=O)(=O)c2cccc([N+](=O)[O-])c2)CC1`, 5.69%.
As to `COc1ccc2cc(/C=N/NC(=O)c3c(Cl)cnn3C)c(Cl)nc2c1`, the “hERG current change (%, negative = inhibition) at 10uM” value is 9.69%.
Then `CC1=C(C(N)=O)C(c2ccccc2)n2nc(-c3cccs3)nc2N1` (stereo not drawn), with -6.66%; and `COc1cccc(CN2CCN(Cc3cccc4c3OCO4)CC2CCO)c1` (stereo not drawn), with -23.2%.
As to `COc1ccccc1/C=C/CN1CCCC(CO)(CCc2ccccc2)C1` (stereo not drawn), the “hERG current change (%, negative = inhibition) at 10uM” value is -74.7%.
On to `Cc1nc([N+](=O)[O-])c(N2CCN(C)CC2)n1Cc1ccccc1`, for which the “hERG current change (%, negative = inhibition) at 10uM” value is on record as -10.4%.
To `CC(=O)c1c(C)[nH]c(C(=O)N2CCN(C(=O)c3ccco3)CC2)c1C` belongs 14.2%; to `C/C(=N\NC(=S)NC(C)C)c1ccccc1`, -9.16%; to `COc1ccc(CNc2ncccc2[N+](=O)[O-])cc1`, 4.68%.
In the case of `Cc1noc(C)c1COC(=O)c1ccc(N(C)C)cc1`, the “hERG current change (%, negative = inhibition) at 10uM” value is -9.83%.
For `CCCC(=O)Nc1ccc(-c2nc3cc(C)c(C)cc3o2)cc1`, the “hERG current change (%, negative = inhibition) at 10uM” value is 13.8%.
To `Cc1cc(C)nc(NS(=O)(=O)c2ccc(NS(=O)(=O)c3ccccc3)cc2)n1` belongs 1.59%.
Then `CC(C)(C)NC(=O)C1CC(=O)N(CCc2ccc(F)cc2)C1` (stereo not drawn), with 15.7%.
As to `Cc1nc(SCC(N)=O)c(C#N)c(C)c1C`, the “hERG current change (%, negative = inhibition) at 10uM” value amounted to 9.82%.
Then `O=S(=O)(Nc1cccc(S(=O)(=O)N2CCOCC2)c1)c1ccc2c(c1)OCCO2`, with 5.32%; and `O=C(COc1ccccc1)Nc1nc2cc3c(cc2s1)OCO3`, with 15.4%.
Then `Cc1ccc(N(Cc2cc3ccccc3[nH]c2=O)S(C)(=O)=O)cc1`, with 11.3%.
To `O=C(Cc1ccc(S(=O)(=O)N2CCOCC2)s1)Nc1ccccc1N1CCOCC1` belongs -3.36%.
As to `COc1ccc(S(=O)(=O)N2CCOC23CCN(S(=O)(=O)c2c(C)cc(C)cc2C)CC3)cc1`, the “hERG current change (%, negative = inhibition) at 10uM” value is listed as -7.82%.
Then `COc1ccc(NC(=O)c2c[nH]n3c(=O)cc(C4CCN(C(=O)OC(C)(C)C)CC4)nc23)cc1Cl`, with 22.4%; and `Cc1snc(SCC(=O)c2ccc(Cl)cc2)c1C#N`, with 2.99%; and `Cc1cc2c(NC3CCCCC3)ncnc2s1.Cl`, with 4.18%.
To `CCN1C(=NCc2ccc(OC)cc2)N[C@@H](c2ccccc2)C(C(=O)OC)=C1C` belongs -28.9%; to `COc1cc2c(cc1NC(=O)C(C)OC(=O)/C=C/c1ccc(OC(F)F)cc1)oc1ccccc12` (stereo not drawn), 7.07%; to `Cc1ccnc(NC(=O)c2cc(F)c(F)cc2Cl)n1`, 17.8%.
Then `COc1ccc(C2NCCO2)cc1OC` (stereo not drawn), with 6.18%.
As for `O=C(CSc1cccc[n+]1[O-])Nc1cccc(S(=O)(=O)NC2=NCCCCC2)c1`, the “hERG current change (%, negative = inhibition) at 10uM” value was determined as 54.8%.
Then `O=C(COC(=O)CSc1ccc(F)cc1)NC1CCCCCC1`, with -3.11%.
To `Cn1nccc1NC(=O)Nc1cccc(Cl)c1` belongs 14.3%; to `COc1ccc(OC)c(S(=O)(=O)N2CCC(C(=O)Nc3cccc(C(F)(F)F)c3)CC2)c1`, -16.6%; to `CC1(C)C(=O)NCCN1C(=O)CCC(=O)O`, -5.78%.
Turning to `COc1ccc(CCCc2nnc(SCC(=O)NN)o2)c(C)c1`, the “hERG current change (%, negative = inhibition) at 10uM” value was found to be 11.9%.
To `C=CCNC(=S)NNc1nc(Nc2ccccc2)nc(N2CCCCC2)n1` belongs 10.3%.
`Cc1c(C)n2c(SCC(=O)N3CCN(c4ccccc4)CC3)nnc2[nH]c1=O`: the “hERG current change (%, negative = inhibition) at 10uM” value is listed as -4.95%.
Then `Cc1cccc(N2CCN(S(=O)(=O)c3cc4c(cc3Cl)NC(=O)CO4)CC2)c1C`, with 12.9%; and `COc1cccc(CNS(=O)(=O)c2cc3c4c(c2)CCC(=O)N4CCC3)c1`, with -7.33%; and `CCOC(=O)CC1C(=O)NCCN1Cc1cccc(C(F)(F)F)c1` (stereo not drawn), with 10.3%.
To `CCOC(=O)CN(C(=O)COc1nc(-c2ccccc2)cc(C)c1C#N)c1cccc(OC)c1` belongs -2.82%.
